Screen size: about 390,000 compounds; about 17,000 (4.4%) were called active. The inconclusive results got no clear call from the source; some entries with a clear call stand among them for comparison. Calls follow the shape of the dose curve; as a rule, active = well fitted inhibition curve with a large enough effect; inconclusive = small, poorly fitted or top-dose-only effect; inactive = no such curve, though single readings can be large or run the other way. A potency beside an inconclusive call is a rough fit, not a confirmed value.
Biological target: Lysine-specific demethylase 4A (Homo sapiens) (UniProt O75164)
Chain of UniProt O75164 (O75164 whole entry, looked up, the tested form may be a part): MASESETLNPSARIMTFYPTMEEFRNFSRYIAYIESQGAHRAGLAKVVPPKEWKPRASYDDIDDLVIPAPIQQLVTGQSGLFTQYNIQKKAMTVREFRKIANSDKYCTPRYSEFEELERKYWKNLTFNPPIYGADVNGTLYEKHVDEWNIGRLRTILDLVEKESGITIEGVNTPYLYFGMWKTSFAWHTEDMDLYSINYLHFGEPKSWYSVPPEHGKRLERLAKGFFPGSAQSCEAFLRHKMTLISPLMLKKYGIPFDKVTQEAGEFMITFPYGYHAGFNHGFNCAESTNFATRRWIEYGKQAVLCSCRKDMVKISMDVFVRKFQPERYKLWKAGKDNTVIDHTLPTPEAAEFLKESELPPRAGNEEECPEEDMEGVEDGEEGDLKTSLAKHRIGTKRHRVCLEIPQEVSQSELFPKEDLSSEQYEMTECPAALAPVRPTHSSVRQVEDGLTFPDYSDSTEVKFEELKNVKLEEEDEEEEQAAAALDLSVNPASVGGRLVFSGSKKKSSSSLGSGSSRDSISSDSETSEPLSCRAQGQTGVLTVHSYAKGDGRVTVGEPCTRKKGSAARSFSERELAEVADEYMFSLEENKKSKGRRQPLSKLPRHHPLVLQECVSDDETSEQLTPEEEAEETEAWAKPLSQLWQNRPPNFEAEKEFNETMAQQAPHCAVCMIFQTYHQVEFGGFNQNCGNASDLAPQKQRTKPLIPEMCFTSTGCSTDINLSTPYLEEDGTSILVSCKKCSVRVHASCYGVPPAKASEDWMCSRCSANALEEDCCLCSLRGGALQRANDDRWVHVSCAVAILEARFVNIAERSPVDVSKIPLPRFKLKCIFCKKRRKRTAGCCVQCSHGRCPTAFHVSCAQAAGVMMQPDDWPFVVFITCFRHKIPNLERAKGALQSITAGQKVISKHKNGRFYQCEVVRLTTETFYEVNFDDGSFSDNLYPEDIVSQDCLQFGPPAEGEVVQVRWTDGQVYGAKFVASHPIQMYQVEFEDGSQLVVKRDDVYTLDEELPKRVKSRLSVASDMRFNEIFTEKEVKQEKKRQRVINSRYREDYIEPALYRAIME
Test: qHTS Assay for Inhibitors of JMJD2A-Tudor Domain; also: nearly all actives have a fitted effect of over 50% in size
Conditions: AlphaScreen JMJD2A-Tudor / H3K4me3 peptide binding; series mostly up to 114 µM
Potency is read from the fitted curve at half-maximal effect; tags tell the direction and shape of the fitted curve.

| SMILES | Potency |
| --- | --- |
| Cc1ccc(NC(=O)CSc2ccc(C(N)=O)cc2[N+](=O)[O-])cc1C | active: 14.1 µM |
| CCN(CC)c1ccc(NS(=O)(=O)c2cc(-c3onc(C)c3C)ccc2OC)c(C)c1 | inconclusive: 14.1 µM [inhibitor, full curve, poor fit] |
| O=C(CSc1nc2ccccc2s1)NC(=O)NCc1ccco1 | inconclusive: 35.5 µM [inhibitor, partial curve] |
| COCC(C)n1c(C)cc(C(=O)Cn2nc(C(=O)O)c3ccccc3c2=O)c1C (centres undefined) | inactive |
| CCOc1ncccc1C(=O)NCCc1ccc(Cl)cc1 | inconclusive: 31.6 µM [inhibitor, single point] |
| CCCCOC(=O)c1ccc(OC(=O)c2sc3ncn(Cc4cccc(F)c4)c(=O)c3c2C)cc1 | inactive |
| Cc1c(C(=O)N2CCCc3ccccc32)oc2ccc(S(=O)(=O)N3CCOCC3)cc12 | inconclusive: 39.8 µM [inhibitor, full curve, poor fit] |
| COc1ccccc1-n1c(C)cc(/C=C2/C(=N)N3C(=NC2=O)SN=C3S(C)(=O)=O)c1C | inactive |
| CCc1cccc(C)c1NC(=O)CCCn1c(C)c2cnn(-c3ccccc3)c(=O)c2c1C | inconclusive: 50.1 µM [inhibitor, partial curve] |
| Cc1ccc(NC(=O)CCC(=O)NNS(=O)(=O)c2ccccc2)cc1C | inconclusive: 35.5 µM [inhibitor, single point] |
| C=C(C)COc1ccc(-c2nc(N)ncc2-c2ccc(Cl)cc2)c(O)c1 | inconclusive: 50.1 µM [inhibitor, partial curve, poor fit] |
| C=CCn1cccc(C(=O)Nc2ccc(C)c(C)c2)c1=O | inconclusive: 31.6 µM [inhibitor, full curve] |
| CC1=CC(=O)C(C(C)=Nc2ccccc2[N+](=O)[O-])C(=O)O1 (centres undefined) | inconclusive: 25.1 µM [inhibitor, single point] |
| O=C(CSc1nnc(-c2ccccc2)c(-c2ccccc2)n1)NCCc1ccccc1 | inconclusive: 39.8 µM [inhibitor, partial curve] |
| Cc1cc(C)c(OCC(=O)N(Cc2ccc(N(C)C)cc2)CC2CCCO2)c(C)c1 (centres undefined) | active: 39.8 µM |
| COc1ccc(N2CCN(C(=O)CN3CCN(C(c4ccccc4)c4ccccc4)CC3)CC2)cc1 | active: 25.1 µM |
| CC1CCCC(C)N1C(=O)COC(=O)Cn1cnc2c1c(=O)n(C)c(=O)n2C (centres undefined) | inactive |
| Cc1cc(C=O)c(C)n1-c1cc(C(=O)O)cc(C(=O)O)c1 | inconclusive: 35.5 µM [inhibitor, single point] |
| O=C(C1=C(O)C(=O)N(CCN2CCOCC2)C1c1cccc(O)c1)c1cc2ccccc2o1 (centres undefined) | inconclusive: 31.6 µM [inhibitor, single point] |
| O=C(CSc1nc(-c2ccccc2)nc2ccc(F)cc12)Nc1ccc(C(=O)O)cc1 | active: 35.5 µM |
| CCN(C(=O)Cc1nc(N)n[nH]1)C1(C(=O)Nc2ccccc2)CCCCC1 | active: 100 µM |
| CCc1cccc2c(C(=O)COC(=O)c3ccc([N+](=O)[O-])s3)c[nH]c12 | inconclusive: 28.2 µM [inhibitor, single point] |

| SMILES | Potency |
| --- | --- |
| CCN(CC)S(=O)(=O)c1ccc(C(=O)NCC(=O)NC2CC2)cc1 | inconclusive: 22.4 µM [inhibitor, partial curve] |
| O=C(c1ccc(Br)cc1)c1cc2ccc(O)cc2oc1=O | inconclusive: 15.8 µM [inhibitor, full curve] |
| NC(=O)c1cc2ccccc2oc1=NCc1ccccc1 | inconclusive: 89.1 µM [inhibitor, single point] |
| COc1ccc(CCNC(=O)c2ccccc2NC(=O)C2=C(C)OCCS2)c(OC)c1 | inconclusive: 35.5 µM [inhibitor, partial curve] |
| Cc1cc(C(=O)OCC(=O)N2c3ccccc3NC(=O)C2(C)C)c(C)n1-c1ccccc1 | inconclusive: 20 µM [inhibitor, full curve] |
| O=C(NC(Cc1ccccc1)C(=O)O)/C(=C\c1ccco1)NC(=O)c1ccc(Br)cc1 (centres undefined) | inconclusive: 28.2 µM [inhibitor, partial curve] |
| COc1ccccc1NC(=O)CN1CCCCCC1 | inactive |
| CC(O)(P(=O)(O)O)P(=O)(O)O | inconclusive: 63.1 µM [inhibitor, partial curve, poor fit] |
| COCc1c(C(=O)N2CCN(S(=O)(=O)c3ccccc3Cl)CC2)oc2ccccc12 | inactive |
| c1ccc(-c2nnc(-c3ccco3)n2-c2ccccc2)cc1 | inactive |
| CCCc1[nH]nc2c1C(c1ccccc1OC)C(C#N)=C(N)O2 (centres undefined) | inactive |
| COc1ccc(N(Cc2cc(=O)[nH]c3ccccc23)C(=O)c2ccco2)cc1 | inconclusive: 35.5 µM [inhibitor, partial curve] |
| Nc1nnc(CC(=O)N/N=C/c2ccc(-c3cccc(C(=O)O)c3)o2)s1 | inconclusive: 70.8 µM [inhibitor, partial curve] |
| O=C(O)c1cc([N+](=O)[O-])ccc1NCCc1ccccc1 | inconclusive: 89.1 µM [inhibitor, single point] |
| Cc1cc(C)c2c(CC(=O)Nc3cc(C(F)(F)F)ccc3Cl)coc2c1 | inactive |
| CC(=O)c1ccc(S(=O)(=O)N(C)C(C)CCc2ccco2)cc1 (centres undefined) | inactive |
| Cc1cc(C(=O)COc2ccc(C#N)cc2)c(C)n1-c1ccc2c(c1)OCO2 | inactive |
| CC(OC(=O)CCc1nc2ccccc2c(=O)[nH]1)C(=O)NCc1ccc2c(c1)OCO2 (centres undefined) | inactive |
| CCCOc1ccc(C(=O)N(Cc2ccco2)Cc2ccco2)cc1 | inconclusive: 56.2 µM [inhibitor, single point] |
| CCOC(=O)Cn1c(=O)n(CC2CCCO2)c2nc(-c3cc(OC)ccc3OC)nc(C(N)=O)c21 (centres undefined) | inactive |
| Nc1ccc(C(=O)N/N=C\c2cc(N=Nc3cccc4ccccc34)ccc2O)cc1 | inconclusive: 2.82 µM [inhibitor, full curve] |
| O=C1C(Cl)=C(Nc2ccc(O)cc2)C(=O)c2ccccc21 | inconclusive: 4.47 µM [inhibitor, full curve, poor fit] |

Source: PubChem BioAssay AID504339 (National Center for Advancing Translational Sciences (NCATS), 2011)
